Results from the supplement of paper PMC4967469.
A lower IC50 marks a more sensitive line; a limit (>, <) means that the fit lies beyond the doses tested. The AUC spans the tested range (256-fold, ending at the top dose) of the same fit: 1 means no effect, lower means more sensitive. For some assays here: A top dose marked as inferred is not printed in the source and was worked back from the curve model. For some assays here: Where an entry number is given, a second screen of the drug exists; the two often differ.

How the values were obtained:
Assay in all cases: Viability of human cancer cell lines after 72 h of drug (GDSC screen)
Vinblastine = compound: CC[C@]1(O)C[C@@H]2CN(CCc3c([nH]c4ccccc34)[C@@](C(=O)OC)(c3cc4c(cc3OC)N(C)[C@H]3[C@@](O)(C(=O)OC)[C@H](OC(C)=O)[C@]5(CC)C=CCN6CC[C@]43[C@@H]65)C2)C1 [Vinblastine]; conditions: top dose 0.1 µM; top dose inferred
Method: (§1)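 Human cancer cell lines in 384-well plates, medium with 10% serum, drug for 72 h over a 256-fold dose range (nine 2-fold or five 4-fold steps up to the top dose). Adherent lines were fixed and stained with the nucleic acid dye Syto60, suspension lines read with resazurin; signal relative to control wells, capped at 0 and 100%. One two-parameter sigmoid per drug and line, fitted in a mixed model over all curves with the slope shared within a line.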

SNX-2112 = compound: CC1(C)CC(=O)c2c(C(F)(F)F)nn(-c3ccc(C(N)=O)c(N[C@H]4CC[C@H](O)CC4)c3)c2C1 [SNX-2112]; conditions: top dose 2.56 µM
Method: as §1

Afatinib = compound: CN(C)C/C=C/C(=O)Nc1cc2c(Nc3ccc(F)c(Cl)c3)ncnc2cc1O[C@H]1CCOC1 [Afatinib]
Method: as §1

XMD13-2 = compound: O=C(NC1CC1)c1cccc(-c2ccc3c(NC(=O)C4CC4)n[nH]c3c2)c1 [XMD13-2]; conditions: top dose 10.24 µM; top dose inferred
Method: as §1

PF-562271 = compound: CN(c1ncccc1CNc1nc(Nc2ccc3c(c2)CC(=O)N3)ncc1C(F)(F)F)S(C)(=O)=O [PF-562271]; conditions: top dose 2.56 µM; top dose inferred
Method: as §1

[1] = top dose 0.5 µM, screen: GDSC drug entry 1032
[2] = top dose 10 µM, screen: GDSC drug entry 1377, top dose inferred

Row | Cell Line | AUC (Vinblastine) | IC50 (Vinblastine) | AUC (SNX-2112) | IC50 (SNX-2112) | AUC (Afatinib; [1]) | IC50 (Afatinib; [1]) | AUC (Afatinib; [2]) | IC50 (Afatinib; [2]) | AUC (XMD13-2) | IC50 (XMD13-2) | AUC (PF-562271) | IC50 (PF-562271)
1 | SW954 (urogenital system, adherent) | 0.529 | 7.52 nM | 0.281 | 38 nM | 0.846 | 373 nM | 0.82 | 5850 nM | 0.855 | 8280 nM | 0.83 | 1630 nM
2 | SW962 (urogenital system, adherent) | 0.649 | 18 nM | 0.669 | 532 nM | 0.942 | > 500 nM | 0.955 | > 10000 nM | 0.959 | > 10200 nM | 0.947 | > 2560 nM
3 | SW982 (soft tissue, adherent) | 0.436 | 4.16 nM | 0.381 | 74.4 nM | 0.985 | > 500 nM | 0.959 | > 10000 nM | 0.967 | > 10200 nM | 0.547 | 216 nM
4 | SW1417 (large intestine, adherent) | 0.928 | > 100 nM | 0.868 | > 2560 nM | 0.954 | > 500 nM | 0.941 | > 10000 nM | 0.964 | > 10200 nM | 0.976 | > 2560 nM
5 | SW1573 (lung adenocarcinoma, adherent) | 0.761 | 47.3 nM | 0.978 | > 2560 nM | 0.97 | > 500 nM | 0.938 | > 10000 nM | 0.973 | > 10200 nM | 0.913 | > 2560 nM
6 | SW1710 (bladder, adherent) | 0.516 | 6.94 nM | 0.633 | 377 nM | 0.965 | > 500 nM | 0.887 | > 10000 nM | 0.924 | > 10200 nM | 0.833 | 1720 nM
7 | SW1783 (glioma, adherent) | 0.85 | 64.5 nM | 0.546 | 211 nM | 0.991 | > 500 nM | 0.968 | > 10000 nM | 0.988 | > 10200 nM | 0.987 | > 2560 nM
8 | SW1990 (pancreas, adherent) | 0.774 | 46.2 nM | 0.985 | > 2560 nM | 0.971 | > 500 nM | 0.829 | 7780 nM | 0.978 | > 10200 nM | 0.927 | > 2560 nM
9 | Saos-2 (osteosarcoma, adherent) | 0.662 | 21.5 nM | 0.981 | > 2560 nM | 0.971 | > 500 nM | 0.938 | > 10000 nM | 0.981 | > 10200 nM | 0.949 | > 2560 nM
10 | SiHa (cervix, adherent) | 0.846 | 90.7 nM | 0.984 | > 2560 nM | 0.986 | > 500 nM | 0.977 | > 10000 nM | 0.987 | > 10200 nM | 0.98 | > 2560 nM
11 | T47D (breast, adherent) | 0.659 | 22 nM | 0.74 | 1150 nM | 0.909 | > 500 nM | 0.86 | > 10000 nM | 0.877 | > 10200 nM | 0.931 | > 2560 nM
12 | T84 (large intestine, adherent) | 0.987 | > 100 nM | 0.562 | 237 nM | 0.976 | > 500 nM | 0.952 | > 10000 nM | 0.936 | > 10200 nM | 0.983 | > 2560 nM
13 | T98G (glioma, adherent) | 0.598 | – | 0.647 | 395 nM | 0.986 | > 500 nM | 0.986 | > 10000 nM | 0.967 | > 10200 nM | 0.944 | > 2560 nM
14 | T-T (oesophagus, adherent) | 0.424 | 3.87 nM | 0.626 | 355 nM | 0.763 | 180 nM | 0.758 | 3460 nM | 0.973 | > 10200 nM | 0.872 | 2430 nM
15 | TE-1 (oesophagus, adherent) | 0.588 | 11.6 nM | 0.922 | > 2560 nM | 0.813 | 363 nM | 0.805 | 6740 nM | 0.963 | > 10200 nM | 0.95 | > 2560 nM
16 | TE-5 (oesophagus, adherent) | 0.514 | 6.85 nM | 0.927 | > 2560 nM | 0.938 | > 500 nM | 0.92 | > 10000 nM | 0.967 | > 10200 nM | 0.888 | > 2560 nM
17 | TE-6 (oesophagus, adherent) | 0.78 | 48.4 nM | 0.847 | 2380 nM | 0.796 | 281 nM | 0.86 | > 10000 nM | 0.977 | > 10200 nM | 0.936 | > 2560 nM
18 | TE-8 (oesophagus, adherent) | 0.463 | 4.92 nM | 0.682 | 537 nM | 0.897 | > 500 nM | 0.962 | > 10000 nM | 0.985 | > 10200 nM | 0.938 | > 2560 nM
19 | TE-9 (oesophagus, adherent) | 0.534 | 7.79 nM | 0.985 | > 2560 nM | 0.917 | > 500 nM | 0.972 | > 10000 nM | 0.986 | > 10200 nM | 0.89 | > 2560 nM
20 | TE-11 (oesophagus, adherent) | 0.383 | 3.07 nM | 0.959 | > 2560 nM | 0.944 | > 500 nM | 0.904 | > 10000 nM | 0.938 | > 10200 nM | 0.832 | 1450 nM
21 | TE-12 (oesophagus, suspension) | 0.846 | 97.7 nM | 0.899 | > 2560 nM | 0.774 | 240 nM | 0.81 | 6690 nM | 0.976 | > 10200 nM | 0.899 | > 2560 nM
22 | TE-15 (oesophagus, suspension) | 0.678 | 21 nM | 0.574 | 262 nM | 0.677 | 105 nM | 0.671 | 2000 nM | 0.985 | > 10200 nM | 0.881 | > 2560 nM
